Test results published in PubChem BioAssay AID1948 (National Center for Advancing Translational Sciences (NCATS), 2009).
In all, about 110,000 compounds went through this assay and about 20 (0.02%) were called active. Inconclusive results, whose numbers are uncertain, are shown with a selection of clear calls. Calls come from the whole dose curve; as a rule, active = well fitted activation curve with a large enough effect; inconclusive = small, poorly fitted or top-dose-only effect; inactive = no such curve, though single readings can be large or run the other way. Potencies of inconclusive entries are left out as doubtful fits.

Assay: qHTS Assay for Compounds that Induce Erasure of Genomic Imprints;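 for activity change, positive = activation: 0% = negative control wells on the plate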
Details: mouse ES Peg3-LacZ reporter, beta-gal luminescence, 40 h; activity change, positive = activation: at 10.9 µM (top of the series) unless noted
Summary of the method: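 Gelatin-coated wells received 300 freshly trypsinized female ES cells with a Peg3LacZ-Neo reporter on the maternal allele, then incubated 40 hours at 37C. BetaGlo was added for 5 minutes at room temperature before a single luminescence read.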
Potency is the fitted concentration of half-maximal effect; tags give direction and shape of the fitted curve.

Structure (SMILES) | Potency | activity change, positive = activation
Cc1nc2cnc(OCc3ccccc3)nc2n(C)c1=O | inconclusive [activator, single point] | 
COc1ccc(C2CC(C(F)(F)F)n3nc(CO)c(Cl)c3N2)cc1OC (configuration not stated) | inconclusive [activator, single point] | 
CN[C@@H]1NC(=O)c2ccccc2N1Cc1ccc(F)cc1 | inactive | 
CCOC(=O)c1ccc(NC(=O)CC2C(=O)N(c3ccc(F)cc3)C(=O)N2Cc2cccnc2)cc1 (configuration not stated) |  | inconclusive: 39.3% [activator]
CCCCN(CC)CCCNC(=O)CS(=O)(=O)Cc1nc(-c2ccc(C)cc2)oc1C | inactive | 
CCCCOC(=O)c1c(N)n(-c2ccc(OC)cc2OC)c2nc3ccccc3nc12 | inactive | 
CC(C)(C)NC(=O)Cn1c(=O)oc2ccc(Cl)cc21 | inconclusive [activator, single point] | 
Cc1ccc(CNC(=O)c2sc3nc[nH]c(=O)c3c2C)cc1 |  | inconclusive: 35.5% [activator]
Cc1cc(C)c(S(=O)(=O)Nc2ccc(-c3ccc(N4CCC(C)CC4)nn3)cc2)cc1C | inactive | 
CCOC(=O)Nc1ccc(NC(=O)c2c(OC)cccc2OC)cc1 | inconclusive [activator, single point] | 
CC(C)[C@H](N=Cc1ccccc1O)C(=O)O | inactive | 
COc1cccc(Cn2c(=O)c(-c3ccc(F)cc3)nc3cnc(N(C)C)nc32)c1 | inconclusive [activator, single point] | 
CCOc1ccc(N2CC(NC(=O)C(=O)c3c[nH]c4ccccc34)CC2=O)cc1 (configuration not stated) |  | inconclusive: 31% [activator]
CCOC(=O)c1ccc(NC(=O)CCc2c(C)nc3c(c(C)nn3-c3ccccc3)c2C)cc1 | inactive | 
CNc1ncncc1-c1ccccc1C | inconclusive [activator, partial curve] | 
CC1CCCC(NC(=O)c2cn(C)c3ccc(S(=O)(=O)N4CCCC4)cc3c2=O)C1C (configuration not stated) | inconclusive [activator, single point] | 
O=C(Nc1ccc(S(=O)(=O)N2CCOCC2)cc1)c1ccc(Br)o1 | inconclusive [activator, partial curve] | 
Cc1cc(C)cc(NC(=O)CN(c2cc(C(F)(F)F)ccc2Cl)S(=O)(=O)c2ccccc2)c1 | inactive | 
Cc1ccc(OCC(=O)Nc2ccc(-c3nc4ncccc4o3)cc2)cc1 | inconclusive [activator, single point] | 
COc1cc(NC(=O)c2ccc(COCC(F)(F)F)o2)cc(OC)c1OC | inconclusive [activator, single point] | 
CCN(C(=O)c1c(-c2ccccc2)noc1C)c1ccccc1 | inactive | 
CCCCSc1ncnc2c1c(-c1ccccc1)cn2-c1cccc(F)c1 |  | inconclusive: 34.3% [activator]
O=C(CSc1nc2c(cnn2-c2ccc(F)cc2)c(=O)[nH]1)N1CCCc2ccccc21 | inconclusive [activator, single point] | 
O=C(NCc1ccccc1Cl)C(=O)NCC(c1cccs1)S(=O)(=O)c1cccs1 (configuration not stated) |  | inconclusive: 456% [activator]

Structure (SMILES) | Potency | activity change, positive = activation
O=C(O)[C@H](Cc1ccccc1)NC(=O)N1CCOCC1 | inconclusive [activator, single point] | 
CC(C)C(NS(=O)(=O)c1ccc2c(c1)oc(=O)n2C)C(=O)N1CCN(C2CCCCC2)CC1 (configuration not stated) | inconclusive [activator, single point] | 
Cc1ccc2c(c1)-c1c(ssc1=S)C(C)(C)N2C(=O)CSc1nncn1C | inactive | 
CC(=O)Nc1nc(CC(C)C)cc(-c2ccco2)c1C#N | inconclusive [activator, single point] | 
N[C@@H](Cc1[nH]nc2ccccc12)C(=O)O | inconclusive [activator, single point] | 
CCN(c1ccccc1)c1nnc(NC(=O)Nc2cccc(Br)c2)s1 | inactive | 
O=C(O)c1n[nH]c2ccccc12 | inconclusive [activator, single point] | 
CC(=O)NCC(=O)N(c1c(C)n(C)n(-c2ccccc2)c1=O)C1(C(=O)NC2CCCC2)CCCCC1 | inconclusive [activator, single point] | 
c1cncc(-c2cncnc2NC2CCNCC2)c1 | inconclusive [activator, single point] | 
CNc1ccnc(-c2ccccc2OC)n1 | inconclusive [activator, partial curve] | 
COc1ccc(-n2ncc(C(=O)N3CCN(c4ccccn4)CC3)c2C2CCN(C(=O)OC(C)(C)C)CC2)cc1 |  | inconclusive: 55% [activator]
CSc1cccc(N2C(=O)N(Cc3ccc([N+](=O)[O-])cc3)c3ccccc3S2(=O)=O)c1 |  | inconclusive: 95.9% [activator]
Cc1ccc(C)c(OCCSc2nc3ccccc3n2CC(=O)N2CCOCC2)c1 |  | inconclusive: 32% [activator]
CCOC(=O)c1[nH]c(=O)[nH]c1COC(=O)c1cc2ccccc2o1 | inconclusive [activator, single point] | 
Cc1nc(SCC(=O)NCc2ccco2)c2c3c(sc2n1)CCCC3 | inactive | 
CN(Cc1ccccc1)S(=O)(=O)c1ccc(F)c(C(=O)Nc2cccc(Cl)c2Cl)c1 | inactive | 
Cc1ccc(Cn2nnc(C(=O)Nc3ccc(F)c(F)c3)c2N)cc1 |  | inconclusive: 33.1% [activator]
N#Cc1c(-c2ccco2)nc(NCC2CCCO2)[nH]c1=O (configuration not stated) | inconclusive [activator, single point] | 
CC(C)c1ccc(C(=O)Nc2ccc(N3CCOCC3)cc2)cc1 | inactive | 
CCOC(=O)N1CCN(C(=O)c2ccc(N3C(=O)CCC3=O)cc2)CC1 | inconclusive [activator, single point] | 
Cc1[nH]c2ccccc2c1C1(O)C(=O)N(Cc2ccccc2)c2ccc(Br)cc21 (configuration not stated) | inactive | 
CCCCC(C)(O)C/C=C/[C@H]1[C@H](O)CC(=O)[C@@H]1CCCCCCC(=O)OC (some centres not stated) | inactive | 
N#Cc1cccc(-c2cncnc2NCc2ccccc2)c1 | inconclusive [activator, full curve] | 
O=C(NCCN1CCN(c2ccccc2)CC1)c1cccn2c(=O)c3ccccc3nc12 | inconclusive [activator, single point] | 

Structure (SMILES) | Potency | activity change, positive = activation
COc1ccc(-n2c(=O)cnc3cnc(N(C)C)nc32)cc1 | inconclusive [activator, single point] | 
Cc1ccc(NC(=O)CC2Sc3ccccc3NC2=O)c(C)c1 (configuration not stated) |  | inconclusive: 30.2% [activator]
COCc1nnc(NC(=O)CS(=O)(=O)Cc2ccccc2)s1 | inconclusive [activator, single point] | 
Cc1nc2ncnn2c(C)c1CCC(=O)NCc1ccc(Cl)cc1 |  | inconclusive: 44.9% [activator]
N=c1n(CCO)c2ccccc2n1CCOc1ccc(F)cc1 | inactive | 
O=C(OC1Cc2c(O)cc(O)cc2OC1c1cc(O)c(=O)c2c(O)c(O)cc(C3Oc4cc(O)cc(O)c4CC3OC(=O)c3cc(O)c(O)c(O)c3)c2c1)c1cc(O)c(O)c(O)c1 (configuration not stated) | inactive | 
O=C(C1COc2cc(S(=O)(=O)Nc3ccc(Cl)cc3)ccc2O1)N1CCCC1 (configuration not stated) |  | inconclusive: 48.7% [activator]
CCOc1ccccc1NC(=O)Cn1c(=O)n(Cc2ccco2)c(=O)c2cccnc21 |  | inconclusive: 39.6% [activator]
COCCn1c(=O)c(CCc2ccccc2)nc2cnc(Oc3ccc(OC)cc3)nc21 | inconclusive [activator, single point] | 
O=C(NC1CC(=O)N(c2ccccc2)C1)c1cccs1 (configuration not stated) |  | inconclusive: 43.4% [activator]
CCOC(=O)N1CCC(NC(=O)C2CCN(S(=O)(=O)c3cnc[nH]3)CC2)CC1 | inconclusive [activator, single point] | 
COCCN(CCOC)c1ncnc2c1cnn2-c1ccc(Cl)cc1 | inactive | 
O=C(NCCc1ccc(Cl)cc1)c1ccc(CS(=O)(=O)Cc2ccc(F)cc2)o1 |  | inconclusive: 51.2% [activator]
COc1ccc(-n2nnc(-c3nc(-c4ccc5c(c4)OCO5)no3)c2C)cc1Cl | inactive | 
O=C(Cn1c(=O)n(Cc2ccco2)c(=O)c2ccccc21)Nc1cccc(F)c1 |  | inconclusive: 32.5% [activator]
O=C(Nc1nnc(S(=O)(=O)N2CCCc3ccccc32)s1)c1ccc(Cl)cc1 | inactive | 
Cn1c(C(=O)NCCCN2CCCC2=O)cc2c(=O)n3ccccc3nc21 | inactive | 
O=C(O)NCc1ccccc1 (tested in a mixture with another compound) | inconclusive [activator, single point] | 
Cc1nc2ccc(S(=O)(=O)NCC(=O)NCc3ccc(Cl)cc3)cc2s1 |  | inconclusive: 31.3% [activator]
c1ccc2c(c1)CCCN2Cc1nnnn1CC1CCCO1 (configuration not stated) | inactive | 
FC(F)(F)c1ccccc1-c1ccc2ncnc(NCc3cccs3)c2c1 | inconclusive [activator, single point] | 
O=C(O)CCc1ccc(-c2ccc(Cl)cc2)n1Cc1ccco1 | inconclusive [activator, full curve, poor fit] | 
CCN(CC)CCNC(=O)c1cc2c(-c3ccc(Cl)cc3)nn(C)c2s1 | inactive | 
O=c1cnc2cnc(Oc3ccccc3)nc2n1C1CC1 | inconclusive [activator, single point] | 
